Experimental data taken from PubChem BioAssay AID1347165 (National Center for Advancing Translational Sciences (NCATS), 2019).
Out of some 220,000 compounds screened, about 5,700 (2.6%) were called active. The inconclusive results got no clear call from the source; some entries with a clear call stand among them for comparison. The call rests on the fitted dose curve; in most records, active means well fitted inhibition curve with a large enough effect; inconclusive means small, poorly fitted or top-dose-only effect; inactive means no such curve, though single readings can be large or run the other way. Where the call is inconclusive, the potency comes from a doubtful curve fit.

These compounds were tested against Lysine-specific demethylase 5B (Homo sapiens) (UniProt Q9UGL1) (assay: Primary screen for KDM5B Histone Demethylases FDH-coupled qHTS). Conditions: FDH-coupled NADH fluorescence (FDH is formaldehyde dehydrogenase); activity change, negative = inhibition: at 57.7 µM (top of the series) unless noted.
UniProt Q9UGL1, sequence (Q9UGL1 whole entry, looked up): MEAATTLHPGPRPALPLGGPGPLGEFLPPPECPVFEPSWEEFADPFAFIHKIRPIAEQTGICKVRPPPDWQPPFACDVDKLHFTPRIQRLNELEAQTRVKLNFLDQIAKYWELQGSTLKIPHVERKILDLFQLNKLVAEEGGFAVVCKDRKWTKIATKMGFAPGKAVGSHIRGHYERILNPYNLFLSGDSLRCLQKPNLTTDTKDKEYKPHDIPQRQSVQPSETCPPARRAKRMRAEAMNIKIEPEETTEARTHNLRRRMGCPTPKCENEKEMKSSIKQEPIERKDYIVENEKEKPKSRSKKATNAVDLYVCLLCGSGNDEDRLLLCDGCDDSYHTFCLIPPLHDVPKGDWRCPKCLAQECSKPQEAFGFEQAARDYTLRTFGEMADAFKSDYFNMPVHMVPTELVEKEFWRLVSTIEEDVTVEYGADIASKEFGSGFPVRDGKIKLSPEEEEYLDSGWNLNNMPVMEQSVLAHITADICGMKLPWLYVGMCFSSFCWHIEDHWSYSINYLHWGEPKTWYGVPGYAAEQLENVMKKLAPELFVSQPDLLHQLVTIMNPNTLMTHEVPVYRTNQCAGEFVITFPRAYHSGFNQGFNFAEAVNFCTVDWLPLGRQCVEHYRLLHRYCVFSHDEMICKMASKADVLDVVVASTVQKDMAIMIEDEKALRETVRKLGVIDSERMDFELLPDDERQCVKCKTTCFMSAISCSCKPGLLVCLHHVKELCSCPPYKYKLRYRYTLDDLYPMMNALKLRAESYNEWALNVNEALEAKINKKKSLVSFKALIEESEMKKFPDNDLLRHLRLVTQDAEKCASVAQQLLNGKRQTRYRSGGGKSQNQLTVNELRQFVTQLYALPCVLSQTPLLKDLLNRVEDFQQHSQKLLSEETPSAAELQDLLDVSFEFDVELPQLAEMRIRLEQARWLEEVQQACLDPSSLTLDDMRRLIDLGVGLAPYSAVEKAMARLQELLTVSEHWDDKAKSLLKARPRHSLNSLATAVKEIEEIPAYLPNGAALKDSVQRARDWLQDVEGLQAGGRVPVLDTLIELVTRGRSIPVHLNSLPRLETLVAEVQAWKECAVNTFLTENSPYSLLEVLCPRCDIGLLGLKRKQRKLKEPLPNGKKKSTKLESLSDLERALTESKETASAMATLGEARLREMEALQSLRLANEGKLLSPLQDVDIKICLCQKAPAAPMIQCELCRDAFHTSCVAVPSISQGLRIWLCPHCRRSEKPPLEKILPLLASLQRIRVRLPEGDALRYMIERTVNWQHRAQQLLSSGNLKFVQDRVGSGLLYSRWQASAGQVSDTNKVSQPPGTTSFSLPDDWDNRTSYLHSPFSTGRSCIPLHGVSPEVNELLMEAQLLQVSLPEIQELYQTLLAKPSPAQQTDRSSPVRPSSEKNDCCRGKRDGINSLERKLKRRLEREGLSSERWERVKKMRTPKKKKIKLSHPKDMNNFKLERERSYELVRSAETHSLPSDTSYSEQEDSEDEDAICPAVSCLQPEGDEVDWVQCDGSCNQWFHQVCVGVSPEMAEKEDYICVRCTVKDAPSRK
Summary of the method: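 Coupled FDH/NAD⁺ fluorescence readout. KDM5BΔAP 200 nM final; compound titration, 10 min RT preincubation; substrate mix 12.5 µM H3K4me3, 25 µM 2-OG, 50 µM Fe(II), 100 µM ascorbate, 0.25 mM NAD⁺, 0.25 U/mL FDH; ΔRFU over 30 min.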
Further: nearly all actives have a fitted effect of over 70% in size.
Potency means the concentration at half of the fitted maximal effect; tags describe the fitted curve by direction and shape.
Wherever activity change, negative = inhibition is given: 0% is about no effect.

SMILES	Potency	activity change, negative = inhibition
Cc1ccncc1-c1c(C)nn2c1N(Cc1cccc(OC(F)(F)F)c1)CCC2	active: 35.5 µM	
COc1ccc2c(c1)CCc1c-2n[nH]c1C(=O)N1CCc2nc3cc(-c4ccccc4)[nH]n3c(=O)c2C1	inconclusive: 14.1 µM [inhibitor, partial curve, poor fit]	
COCCCNc1ncnc2c1cnn2-c1ccc(F)cc1	inconclusive: 35.5 µM [inhibitor, single point]	
COCC(=O)N[C@H]1C[C@H]2C(=O)Nc3ccccc3C(=O)N2C1		inactive: 24.1% [at 86.2 µM]
CCOC(=O)c1ccc(NC(=O)CC2C(=O)N(c3ccc(F)cc3)C(=O)N2Cc2ccc3c(c2)OCO3)cc1 (stereo not drawn)	inconclusive: 25.1 µM [inhibitor, single point]	
Cn1c(=O)ccn(CC(=O)Nc2nccs2)c1=O		inactive: 8.43%
COc1cccc(CN2CCN(c3nc4c(s3)c(C)nn4C)CC2=O)c1	inconclusive: 39.8 µM [inhibitor, partial curve, poor fit]	
COc1ccc(-c2noc(CSc3nnc(-c4ccco4)n3C)n2)c(OC)c1		inactive: 5.44%
Cc1nn(CC(=O)Nc2ccccc2C(F)(F)F)c2ccccc12		inactive: -1.27%
Cc1noc2c(N(C)C)cc(-c3cccc(C(F)(F)F)c3)nc12	inconclusive: 35.5 µM [inhibitor, single point]	
COC(=O)c1cc2sc(C)cc2n1Cc1ccc(Br)cc1F	inconclusive: 35.5 µM [inhibitor, single point]	
CS(=O)(=O)c1ccc(C(=O)OCc2c(F)c(F)c(F)c(F)c2F)cc1		inactive: 24.3%
CN1C(=O)[C@H]2CN(Cc3cc(F)ccc3F)C[C@H]2C1=O		inactive: -17.2%
Cc1cc(C)cc(Oc2nc(-c3ccncc3)nc3ccccc23)c1		inactive: -9.68%
N#Cc1cccnc1N1CCN(c2nccc(CCC(F)(F)F)n2)CC1	inconclusive: 25.1 µM [inhibitor, single point]	
CCOC(=O)c1ccc(NC(=O)CCc2c(C)nc3nc[nH]n3c2=O)cc1		inconclusive: -31.3% [inhibitor]
CSc1cccc(NC(=O)c2cc3c(N4CCSCC4)nc(C)cn3n2)c1	active: 25.1 µM	
NC(=S)NCCc1ccccc1		inactive: 10.3%
COC(=O)c1scc(-c2ccccc2)c1S(=O)(=O)Nc1cccc(C)c1C		inconclusive: -40.3% [inhibitor]
COc1ccc(CNc2ncnc3c2CN(C2CCCNC2)C(=O)CN3C)cc1OC (stereo not drawn)	inconclusive: 56.2 µM [inhibitor, partial curve]	
CN(C)C[C@@H]1CN(Cc2ccncc2)C[C@H]1NC(=O)NCc1ccccc1	inconclusive: 28.2 µM [inhibitor, single point]	
CC(C)(C)n1c(=O)[nH]c2cccnc21	inconclusive: 12.6 µM [inhibitor, partial curve, poor fit]	
Cc1ccccc1Nc1c(-c2ccc(N3CCOCC3)cc2)nc2ncccn12	inconclusive: 35.5 µM [inhibitor, partial curve, poor fit]	

SMILES	Potency	activity change, negative = inhibition
CCOC(=O)C(C)Oc1cccn2c(=O)c(-c3cc(C)n(-c4ccc(Cl)cc4)n3)c(C)nc12 (stereo not drawn)	active: 22.4 µM	
CSc1ccc(CNC(=O)c2ccccc2NC(=O)c2nsc3ccccc23)cc1	inconclusive: 3.16 µM [inhibitor, full curve, poor fit]	
COCCCNC(=O)c1sc2nc(C)c(C(=O)Nc3ccc(C)cc3C)c(-c3ccc(Cl)cc3)c2c1N	inconclusive: 28.2 µM [inhibitor, single point]	
CC(C)CCN1CCCN(CCN(C)C)c2ccccc21	inconclusive: 14.1 µM [inhibitor, partial curve]	
CC1CCN(C(=O)c2cnn(-c3cccc(Cl)c3)c2C2CCN(C(=O)OC(C)(C)C)CC2)CC1	inconclusive: 31.6 µM [inhibitor, single point]	
CC(=O)N1CCc2c(sc3c2c(=O)n(-c2ccccc2C)c(=O)n3Cc2cccc(F)c2)C1	inconclusive: 2.51 µM [inhibitor, full curve, poor fit]	
Cc1cc2c(cc1C)CSC(c1cc(Br)cc(Br)c1O)SC2		inactive: 14%
CN(Cc1nccn1C)C(=O)c1csc2nc(-c3ccc(C(F)(F)F)cc3)cn12	inconclusive: 22.4 µM [inhibitor, partial curve, poor fit]	
Cc1ncc(CN2CCCC2C(=O)Nc2ccc(-c3cccc(F)c3)cc2)n1C (stereo not drawn)		inactive: -18.9%
Cc1ccc(-c2cc(C(=O)NCCCn3ccnc3)c3ccccc3n2)cc1	inconclusive: 22.4 µM [inhibitor, partial curve, poor fit]	
CCOC(=O)Cn1c(=O)n(C2CCCCC2)c2nc(-c3ccc(Cl)cc3)nc(C(N)=O)c21	inconclusive: 28.2 µM [inhibitor, partial curve, poor fit]	
COc1ccc(Cn2c(C3CCN(C(=O)c4cc(C)cc(C)c4)CC3)n[nH]c2=O)cc1		inactive: 19%
COCCN1CCC2(C1)CN(C)c1ccc(C(=O)NCc3ccccc3)cc12 (stereo not drawn)	active: 35.5 µM	
CC(C)c1ccc(S(=O)(=O)Nc2ccc3oc4c(c3c2)C(=O)CC(C)(C)C4)cc1	inconclusive: 5.62 µM [inhibitor, partial curve, poor fit]	
Cc1cc(C)c(NC(=O)c2cc3c(=O)n4ccccc4nc3n2C)c(C)c1	inconclusive: 14.1 µM [inhibitor, partial curve, poor fit]	
O=S(=O)(O)c1cnccc1Nc1cccc(C(F)(F)F)c1	inconclusive: 39.8 µM [inhibitor, single point]	
C=CCNC(=O)[C@@H]1CCCN1[C@@H](C(=O)NC)C1CCCCC1	inconclusive: 31.6 µM [inhibitor, partial curve, poor fit]	
CC(CC(=O)Nc1ccc2c(c1)CCC2)c1ccccc1 (stereo not drawn)		inactive: 8.3%
CCCN(C(=O)C(=O)c1c[nH]c2ccccc12)c1ccc(F)cc1		inactive: 14.8%
COc1ccc(C(=O)Oc2ccc(/C=C(/C#N)C(=O)Nc3ccccc3C(F)(F)F)cc2)cc1	inconclusive: 28.2 µM [inhibitor, single point]	
CC1CCCCN1S(=O)(=O)c1ccc(C(=O)Nc2ccc(Cl)c3ncsc23)cc1 (stereo not drawn)		inactive: -13.7%
Cn1cccc1CN1CC(Oc2ccc3c(c2)OCO3)C1	inconclusive: 79.4 µM [inhibitor, partial curve]	
CCOc1ccc(CNC2CCCc3ccccc32)cc1 (stereo not drawn)	inconclusive: 39.8 µM [inhibitor, single point]	

SMILES	Potency	activity change, negative = inhibition
COc1cccc(-n2cc(C(=O)NCc3cccc(Cl)c3)c3ccccc3c2=O)c1	inconclusive: 22.4 µM [inhibitor, partial curve, poor fit]	
Cn1ncc(N2CCC(CNC(=O)C3=Cc4ccccc4OC=C3)C2)cc1=O (stereo not drawn)	inconclusive: 31.6 µM [inhibitor, single point]	
CCn1cc(C(=O)N2CC(COC)C3(CCNCC3)C2)cn1 (stereo not drawn)	inconclusive: 28.2 µM [inhibitor, partial curve, poor fit]	
O=[S+]1([O-])NCC2(CCCN(Cc3c(F)cccc3Cl)C2)Oc2ncccc21 (stereo not drawn)		inactive: 25% [at 115 µM]
COc1ccc(-c2noc(-c3nc(Cc4cccc(F)c4)no3)n2)cc1OC	active: 25.1 µM	
O=C(Nc1cccc(Br)c1)C1C2C3CCC(C3)C12 (stereo not drawn)		inactive: 13.5%
COc1cccc(Nc2ccc3c(n2)C(C)(C(=O)NCCc2cnc[nH]2)CN(C)C3)c1 (stereo not drawn)	active: 39.8 µM	
O=C(NCc1ccccc1Cl)c1noc(-c2ccc3c(c2)OCO3)n1	inconclusive: 31.6 µM [inhibitor, single point]	
COc1cccc(-c2nc(CSc3ccc4c(c3)OCCCO4)cs2)c1OC		inactive: -10.6%
Cc1ccc(NC(=O)CSc2nc3c([nH]c4ccccc43)c(=O)n2-c2ccccc2)c(C)c1	inconclusive: 25.1 µM [inhibitor, single point]	
Cc1cc(C(C)(C)C)cc(C)c1CCNC(=O)c1nccnc1N	inconclusive: 35.5 µM [inhibitor, partial curve, poor fit]	
CN(Cc1ccccc1)C(=O)c1ccc2c(c1)NC(C)(CNCc1ccccc1)CO2 (stereo not drawn)	inconclusive: 35.5 µM [inhibitor, partial curve, poor fit]	
O=C(Cc1cccs1)N1CCC2(CC1)N=C(c1ccc(Cl)cc1)NO2	active: 25.1 µM	
CCCCN1CCc2nc(N3CCN(c4ncccn4)CC3)ncc2C1	inconclusive: 44.7 µM [inhibitor, single point]	
Cn1c(SCc2ccc(Br)cc2F)nnc1-c1cnccn1		inactive: 15.2%
COc1ccc(-c2ccc3c(N)c(C(=O)Nc4cc(F)ccc4C)sc3n2)cc1	inconclusive: 8.91 µM [inhibitor, partial curve, poor fit]	
Cc1cccc(Nc2c3c(nc4nncn24)CCC3)c1		inconclusive: -30.7% [inhibitor]
CC(=O)Nc1ccc(NC(=O)CCNc2c(-c3ccc(F)cc3)nc3cnccn23)cc1	active: 28.2 µM	
CCN(CC)S(=O)(=O)c1ccc(NC(=O)COc2ccc3c(C)cc(=O)oc3c2)cc1	inconclusive: 20 µM [inhibitor, partial curve, poor fit]	
O=c1c2ccccc2n(Cc2cccc(F)c2)c(=O)n1Cc1ccccc1Cl	inconclusive: 28.2 µM [inhibitor, partial curve, poor fit]	
CCc1nnc(CN2CCC(N3CCCC(C(=O)NCc4ccccn4)C3)CC2)o1 (stereo not drawn)	inconclusive: 8.91 µM [inhibitor, partial curve]	
CCOc1ccc(-c2cc3c(=O)n(CCNC(=O)c4cccc(C#N)c4)ccn3n2)cc1	inconclusive: 25.1 µM [inhibitor, single point]	
